# Measurements reported in the supplement of paper PMC8728848.
# Some of the results follow.
# Key:
# Experiment in all cases: glycan array binding signal (z-score within array); higher = stronger binding
# Conditions in all cases: glycan notation: IUPAC condensed, linker removed
# Gal(a1-3)Gal = target: Gal(a1-3)Gal
# Method in brief: (§1)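 The binding signal is a Z-score computed within each array and averaged over linkers. Arrays of the same protein sequence at different concentrations or buffers were also averaged together. Data originate from 3228 arrays in the Consortium for Functional Glycomics database, kept only where the protein sequence was available.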
# Gal(a1-3)Gal(b1-3)GlcNAc = target: Gal(a1-3)Gal(b1-3)GlcNAc
# Method in brief: as §1
# Gal(a1-3)Gal(b1-4)Glc = target: Gal(a1-3)Gal(b1-4)Glc
# Method in brief: as §1
# Gal(a1-3)Gal(b1-4)GlcNAc = target: Gal(a1-3)Gal(b1-4)GlcNAc
# Method in brief: as §1
# [1] = target: Gal(a1-3)Gal(b1-4)[Fuc(a1-3)]GlcNAc
# Method in brief: as §1
# [2] = target: Gal(a1-3)Gal(b1-4)[Fuc(a1-3)]GlcNAc(b1-2)Man(a1-3)[Gal(a1-3)Gal(b1-4)[Fuc(a1-3)]GlcNAc(b1-2)Man(a1-6)]Man(b1-4)GlcNAc(b1-4)GlcNAc
# Method in brief: as §1
# Gal(a1-3)GalNAc = target: Gal(a1-3)GalNAc
# Method in brief: as §1
# [3] = target: Gal(a1-3)[Gal(a1-4)]Gal(b1-4)GlcNAc
# Method in brief: as §1
# Gal(a1-4)Gal(b1-4)Glc = target: Gal(a1-4)Gal(b1-4)Glc
# Method in brief: as §1
# Gal(a1-4)Gal(b1-4)GlcNAc = target: Gal(a1-4)Gal(b1-4)GlcNAc
# Method in brief: as §1
# [4] = target: Gal(a1-4)Gal(b1-4)GlcNAc(b1-3)Gal(b1-4)Glc
# Method in brief: as §1
# Gal(a1-4)GlcNAc = target: Gal(a1-4)GlcNAc
# Method in brief: as §1
# Gal(a1-6)Glc = target: Gal(a1-6)Glc
# Method in brief: as §1
# Gal(b1-2)Gal = target: Gal(b1-2)Gal
# Method in brief: as §1
# Gal(b1-3)Gal = target: Gal(b1-3)Gal
# Method in brief: as §1
# Gal(b1-3)Gal(b1-4)GlcNAc = target: Gal(b1-3)Gal(b1-4)GlcNAc
# Method in brief: as §1
# [5] = target: Gal(b1-3)Gal(b1-4)GlcNAc(b1-2)Man(a1-3)[Gal(b1-3)Gal(b1-4)GlcNAc(b1-2)Man(a1-6)]Man(b1-4)GlcNAc(b1-4)GlcNAc
# Method in brief: as §1
# Gal(b1-3)GalNAc = target: Gal(b1-3)GalNAc
# Method in brief: as §1
# [6] = target: Gal(b1-3)GalNAc(a1-3)[Fuc(a1-2)]Gal(b1-4)Glc
# Method in brief: as §1
# [7] = target: Gal(b1-3)GalNAc(a1-3)[Fuc(a1-2)]Gal(b1-4)GlcNAc
# Method in brief: as §1
# [8] = target: Gal(b1-3)GalNAc(b1-3)Gal(a1-4)Gal(b1-4)Glc
# Method in brief: as §1
# [9] = target: Gal(b1-3)GalNAc(b1-4)Gal(b1-4)Glc
# Method in brief: as §1
# [10] = target: Gal(b1-3)GalNAc(b1-4)[Neu5Ac(a2-3)]Gal(b1-4)Glc
# Method in brief: as §1
# Gal(b1-3)GlcNAc = target: Gal(b1-3)GlcNAc
# Method in brief: as §1
# [11] = target: Gal(b1-3)GlcNAc(b1-2)Man(a1-3)[Gal(b1-3)GlcNAc(b1-2)Man(a1-6)]Man(b1-4)GlcNAc(b1-4)GlcNAc
# Method in brief: as §1
# [12] = target: Gal(b1-3)GlcNAc(b1-2)Man(a1-3)[Gal(b1-3)GlcNAc(b1-2)Man(a1-6)]Man(b1-4)GlcNAc(b1-4)[Fuc(a1-6)]GlcNAc
# Method in brief: as §1
# [13] = target: Gal(b1-3)GlcNAc(b1-3)Gal(b1-3)GlcNAc
# Method in brief: as §1
# [14] = target: Gal(b1-3)GlcNAc(b1-3)Gal(b1-4)Glc
# Method in brief: as §1
# [15] = target: Gal(b1-3)GlcNAc(b1-3)Gal(b1-4)GlcNAc
# Method in brief: as §1
# [16] = target: Gal(b1-3)[Fuc(a1-4)]GlcNAc
# Method in brief: as §1
# [17] = target: Gal(b1-3)[Fuc(a1-4)]GlcNAc(b1-2)Man(a1-3)[Gal(b1-3)[Fuc(a1-4)]GlcNAc(b1-2)Man(a1-6)]Man(b1-4)GlcNAc(b1-4)GlcNAc
# Method in brief: as §1
# [18] = target: Gal(b1-3)[Fuc(a1-4)]GlcNAc(b1-2)Man(a1-3)[Gal(b1-3)[Fuc(a1-4)]GlcNAc(b1-2)Man(a1-6)]Man(b1-4)GlcNAc(b1-4)[Fuc(a1-6)]GlcNAc
# Method in brief: as §1
# [19] = target: Gal(b1-3)[Fuc(a1-4)]GlcNAc(b1-3)Gal(b1-3)[Fuc(a1-4)]GlcNAc
# Method in brief: as §1
# [20] = target: Gal(b1-3)[Fuc(a1-4)]GlcNAc(b1-3)Gal(b1-4)GlcNAc
# Method in brief: as §1
# [21] = target: Gal(b1-3)[Fuc(a1-4)]GlcNAc(b1-3)Gal(b1-4)[Fuc(a1-3)]GlcNAc
# Method in brief: as §1
# [22] = target: Gal(b1-3)[GlcNAc(b1-6)]GalNAc
# Method in brief: as §1
# [23] = target: Gal(b1-3)[Neu5Ac(a2-6)]GalNAc
# Method in brief: as §1
# [24] = target: Gal(b1-3)[Neu5Ac(a2-6)]GlcNAc(b1-6)Gal(b1-4)Glc
# Method in brief: as §1
# [25] = target: Gal(b1-3)[Neu5Ac(b2-6)]GalNAc
# Method in brief: as §1
# [26] = target: Gal(b1-4)GalNAc(a1-3)[Fuc(a1-2)]Gal(b1-4)GlcNAc
# Method in brief: as §1
# [27] = target: Gal(b1-4)GalNAc(b1-3)[Fuc(a1-2)]Gal(b1-4)GlcNAc
# Method in brief: as §1
# Gal(b1-4)Glc = target: Gal(b1-4)Glc
# Method in brief: as §1
# Gal(b1-4)Glc6S = target: Gal(b1-4)Glc6S
# Method in brief: as §1
# Gal(b1-4)GlcNAc = target: Gal(b1-4)GlcNAc
# Method in brief: as §1
# [28] = target: Gal(b1-4)GlcNAc(a1-6)Gal(b1-4)GlcNAc
# Method in brief: as §1
# [29] = target: Gal(b1-4)GlcNAc(b1-2)Man(a1-3)Man(b1-4)GlcNAc(b1-4)GlcNAc
# Method in brief: as §1
# [30] = target: Gal(b1-4)GlcNAc(b1-2)Man(a1-3)[Gal(b1-4)GlcNAc(b1-2)Man(a1-6)]Man(b1-4)GlcNAc(b1-4)GlcNAc
# Method in brief: as §1
# [31] = target: Gal(b1-4)GlcNAc(b1-2)Man(a1-3)[Gal(b1-4)GlcNAc(b1-2)Man(a1-6)]Man(b1-4)GlcNAc(b1-4)[Fuc(a1-6)]GlcNAc
# Method in brief: as §1
# [32] = target: Gal(b1-4)GlcNAc(b1-2)Man(a1-3)[Man(a1-6)]Man(b1-4)GlcNAc(b1-4)GlcNAc
# Method in brief: as §1
# [33] = target: Gal(b1-4)GlcNAc(b1-2)Man(a1-6)Man(b1-4)GlcNAc(b1-4)GlcNAc
# Method in brief: as §1
# [34] = target: Gal(b1-4)GlcNAc(b1-2)Man(a1-6)[Man(a1-3)]Man(b1-4)GlcNAc(b1-4)GlcNAc
# Method in brief: as §1
# [35] = target: Gal(b1-4)GlcNAc(b1-2)[Gal(b1-4)GlcNAc(b1-4)]Man(a1-3)[Gal(b1-4)GlcNAc(b1-2)Man(a1-6)]Man(b1-4)GlcNAc(b1-4)GlcNAc
# Method in brief: as §1
# [36] = target: Gal(b1-4)GlcNAc(b1-3)Gal(b1-3)GlcNAc
# Method in brief: as §1
# [37] = target: Gal(b1-4)GlcNAc(b1-3)Gal(b1-4)Glc
# Method in brief: as §1
# [38] = target: Gal(b1-4)GlcNAc(b1-3)Gal(b1-4)GlcNAc
# Method in brief: as §1
# [39] = target: Gal(b1-4)GlcNAc(b1-3)Gal(b1-4)GlcNAc(b1-3)Gal(b1-4)GlcNAc
# Method in brief: as §1
# [40] = target: Gal(b1-4)GlcNAc(b1-3)Gal(b1-4)[Fuc(a1-3)]GlcNAc(b1-3)Gal(b1-4)[Fuc(a1-3)]GlcNAc
# Method in brief: as §1
# [41] = target: Gal(b1-4)GlcNAc(b1-3)GalNAc
# Method in brief: as §1
# [42] = target: Gal(b1-4)GlcNAc(b1-3)[Gal(b1-4)GlcNAc(b1-6)]Gal(b1-4)GlcNAc
# Method in brief: as §1
# [43] = target: Gal(b1-4)GlcNAc(b1-3)[GlcNAc(b1-6)]Gal(b1-4)GlcNAc
# Method in brief: as §1
binder,measurement,setting,value
DETC sTCR (Mus musculus) (protein) LDVYLEPVAKTFTVVAGDPASFYCTVTGGDMKNYHMSWYKKNGTNALFLVYKLNSNSTDGGKSNLKGKINISKNQFILDIQKATMKDAGTYYCGSDIGGSSWDTRQMFFGTGIELFVEPKSQPPAKPSVFIMKNGTNVACLVKDFYPKEVTISLRSSKKIVEFDPAIVISPSGKYSAVKLGQYGDSNSVTCSVQHNSETVHSTDFEPYANSFNNEKLPEPENDTQISEPCSSADLVPRGSTTAPSAQLKKKLQALKKKNAQLKWKLQALKKKLAQHHHHHHDSWISQDQLSFTRRPNKTVHISCKLSGVPLHNTIVHWYQLKEGEPLRRIFYGSVKTYKQDKSHSRLEIDEKDDGTFYLIINNVVTSDEATYYCACWDSSGFHKVFAEGTKLIVIPSDKRLDADISPKPTIFLPSVAETNLHKTGTYLCLLEKFFPDVIRVYWKEKDGNTILDSQEGDTLKTNDTYMKFSWLTVPERAMGKEHRCIVKHENNKGGADQEIFFPSIKKVAVSTKPTTCSSADLVPRGSTTAPSAQLEKELQALEKENAQLEWELQALEKELAQLNDIFEAQKIEW,glycan array binding signal (z-score),Gal(a1-3)Gal,-0.626
same,glycan array binding signal (z-score),Gal(a1-3)Gal(b1-3)GlcNAc,-0.367
same,glycan array binding signal (z-score),Gal(a1-3)Gal(b1-4)Glc,-0.639
same,glycan array binding signal (z-score),Gal(a1-3)Gal(b1-4)GlcNAc,-0.643
same,glycan array binding signal (z-score),[1],-0.284
same,glycan array binding signal (z-score),[2],-0.631
same,glycan array binding signal (z-score),Gal(a1-3)GalNAc,0.029
same,glycan array binding signal (z-score),[3],0.9
same,glycan array binding signal (z-score),Gal(a1-4)Gal(b1-4)Glc,0.397
same,glycan array binding signal (z-score),Gal(a1-4)Gal(b1-4)GlcNAc,-0.169
same,glycan array binding signal (z-score),[4],0.052
same,glycan array binding signal (z-score),Gal(a1-4)GlcNAc,-0.601
same,glycan array binding signal (z-score),Gal(a1-6)Glc,-0.605
same,glycan array binding signal (z-score),Gal(b1-2)Gal,-0.101
same,glycan array binding signal (z-score),Gal(b1-3)Gal,-0.45
same,glycan array binding signal (z-score),Gal(b1-3)Gal(b1-4)GlcNAc,-0.515
same,glycan array binding signal (z-score),[5],-0.559
same,glycan array binding signal (z-score),Gal(b1-3)GalNAc,-0.241
same,glycan array binding signal (z-score),[6],-0.497
same,glycan array binding signal (z-score),[7],-0.518
same,glycan array binding signal (z-score),[8],-0.024
same,glycan array binding signal (z-score),[9],-0.294
same,glycan array binding signal (z-score),[10],1.47
same,glycan array binding signal (z-score),Gal(b1-3)GlcNAc,-0.464
same,glycan array binding signal (z-score),[11],0.085
same,glycan array binding signal (z-score),[12],0.945
same,glycan array binding signal (z-score),[13],-0.355
same,glycan array binding signal (z-score),[14],-0.571
same,glycan array binding signal (z-score),[15],-0.557
same,glycan array binding signal (z-score),[16],-0.401
same,glycan array binding signal (z-score),[17],0.583
same,glycan array binding signal (z-score),[18],2.22
same,glycan array binding signal (z-score),[19],-0.554
same,glycan array binding signal (z-score),[20],-0.152
same,glycan array binding signal (z-score),[21],-0.378
same,glycan array binding signal (z-score),[22],-0.348
same,glycan array binding signal (z-score),[23],-0.26
same,glycan array binding signal (z-score),[24],-0.311
same,glycan array binding signal (z-score),[25],-0.458
same,glycan array binding signal (z-score),[26],0.276
same,glycan array binding signal (z-score),[27],0.223
same,glycan array binding signal (z-score),Gal(b1-4)Glc,-0.62
same,glycan array binding signal (z-score),Gal(b1-4)Glc6S,2.38
same,glycan array binding signal (z-score),Gal(b1-4)GlcNAc,-0.281
same,glycan array binding signal (z-score),[28],0.688
same,glycan array binding signal (z-score),[29],-0.457
same,glycan array binding signal (z-score),[30],-0.254
same,glycan array binding signal (z-score),[31],-0.668
same,glycan array binding signal (z-score),[32],-0.186
same,glycan array binding signal (z-score),[33],-0.609
same,glycan array binding signal (z-score),[34],6.38
same,glycan array binding signal (z-score),[35],-0.621
same,glycan array binding signal (z-score),[36],-0.703
same,glycan array binding signal (z-score),[37],-0.495
same,glycan array binding signal (z-score),[38],0.474
same,glycan array binding signal (z-score),[39],-0.538
same,glycan array binding signal (z-score),[40],-0.363
same,glycan array binding signal (z-score),[41],-0.338
same,glycan array binding signal (z-score),[42],-0.447
same,glycan array binding signal (z-score),[43],-0.656
